Results published in US5807535A, “Metal complexes of hydroxyaryl containing aminocarboxylic acid chelating agents” (Australian Nuclear Science & Technology Organisation, priority 1992, dated 1998).
Further values from the same series stand in other lists.

Experiment: Biodistribution of 67Ga complexes in mice
Assay type: in vivo, balb/c mice
Summary of the method: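 Ligand labelled with 67Ga citrate at pH 12, 40 °C for 40 min, diluted in saline and filter-sterilised. Balb/c mice given ~3.7×10^5 Bq intravenously via tail vein; five animals sacrificed at each of six time points.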

O=C(O)CN(CCN(CC(=O)O)CC(=O)Nc1ccc(Cl)cc1O)CC(=O)Nc1ccc(Cl)cc1O [Compound 2] showed a biodistribution bladder (1 min) of 0.08 % ID, a biodistribution blood (1 min) of 17.45 % ID and a biodistribution caecum (1 min) of 0.42 % ID. For the same compound, the biodistribution colon (1 min) was 0.48 % ID, the biodistribution duodenum (1 min) was 0.13 % ID and the biodistribution heart (1 min) was 0.42 % ID. For the same compound, the biodistribution ileum (1 min) was 0.15 % ID, the biodistribution jejunum (1 min) was 1.42 % ID and the biodistribution ovaries (1 min) was 0.06 % ID. The biodistribution pancreas (1 min) was 0.34 % ID, the biodistribution salivary gl (1 min) was 0.11 % ID and the “biodistribution stomach GL” value (1 min) was 0.26 % ID. The “biodistribution stomach SQ” value (1 min) was 0.07 % ID, the biodistribution tail (1 min) was 0.00 % ID and the biodistribution bladder (3 min) was 0.06 % ID. The biodistribution blood (3 min) was 6.02 % ID, the biodistribution caecum (3 min) was 0.23 % ID and the biodistribution colon (3 min) was 0.28 % ID. For the same compound, the biodistribution duodenum (3 min) was 0.34 % ID, the biodistribution heart (3 min) was 0.14 % ID and the biodistribution ileum (3 min) was 0.11 % ID. For the same compound, the biodistribution jejunum (3 min) was 1.67 % ID, the biodistribution ovaries (3 min) was 0.05 % ID and the biodistribution pancreas (3 min) was 0.11 % ID. The biodistribution salivary gl (3 min) was 0.05 % ID, the “biodistribution stomach GL” value (3 min) was 0.20 % ID and the “biodistribution stomach SQ” value (3 min) was 0.08 % ID. The biodistribution tail (3 min) was 0.00 % ID, the biodistribution bladder (5 min) was 0.09 % ID and the biodistribution blood (5 min) was 3.31 % ID. For the same compound, the biodistribution caecum (5 min) was 0.15 % ID, the biodistribution colon (5 min) was 0.25 % ID and the biodistribution duodenum (5 min) was 0.67 % ID. It also gave a biodistribution heart (5 min) of 0.09 % ID, a biodistribution ileum (5 min) of 0.21 % ID and a biodistribution jejunum (5 min) of 3.68 % ID. For the same compound, the biodistribution ovaries (5 min) was 0.04 % ID, the biodistribution pancreas (5 min) was 0.10 % ID and the biodistribution salivary gl (5 min) was 0.02 % ID. For the same compound, the “biodistribution stomach GL” value (5 min) was 0.53 % ID, the “biodistribution stomach SQ” value (5 min) was 0.18 % ID and the biodistribution tail (5 min) was 0.00 % ID. The biodistribution bladder (10 min) was 0.03 % ID, the biodistribution blood (10 min) was 2.16 % ID and the biodistribution caecum (10 min) was 0.04 % ID. For the same compound, the biodistribution colon (10 min) was 0.10 % ID, the biodistribution duodenum (10 min) was 1.22 % ID and the biodistribution heart (10 min) was 0.03 % ID. The biodistribution ileum (10 min) was 0.03 % ID, the biodistribution jejunum (10 min) was 5.99 % ID and the biodistribution ovaries (10 min) was 0.01 % ID. The biodistribution pancreas (10 min) was 0.03 % ID, the biodistribution salivary gl (10 min) was 0.01 % ID and the “biodistribution stomach GL” value (10 min) was 0.28 % ID. For the same compound, the “biodistribution stomach SQ” value (10 min) was 0.25 % ID, the biodistribution tail (10 min) was 0.00 % ID and the biodistribution bladder (30 min) was 0.01 % ID. For the same compound, the biodistribution blood (30 min) was 3.20 % ID, the biodistribution caecum (30 min) was 0.20 % ID and the biodistribution colon (30 min) was 0.16 % ID. It also gave a biodistribution duodenum (30 min) of 0.31 % ID, a biodistribution heart (30 min) of 0.01 % ID and a biodistribution ileum (30 min) of 0.78 % ID. It also gave a biodistribution jejunum (30 min) of 6.64 % ID, a biodistribution lungs (30 min) of 0.06 % ID and a biodistribution ovaries (30 min) of 0.01 % ID. For the same compound, the biodistribution pancreas (30 min) was 0.08 % ID, the biodistribution salivary gl (30 min) was 0.00 % ID and the “biodistribution stomach GL” value (30 min) was 0.11 % ID. For the same compound, the “biodistribution stomach SQ” value (30 min) was 0.03 % ID, the biodistribution tail (30 min) was 0.56 % ID and the biodistribution bladder (120 min) was 0.00 % ID. It also gave a biodistribution blood (120 min) of 0.07 % ID, a biodistribution caecum (120 min) of 7.06 % ID and a biodistribution colon (120 min) of 2.03 % ID. For the same compound, the biodistribution duodenum (120 min) was 0.04 % ID, the biodistribution heart (120 min) was 0.00 % ID and the biodistribution ileum (120 min) was 0.28 % ID. For the same compound, the biodistribution jejunum (120 min) was 0.99 % ID, the biodistribution lungs (120 min) was 0.01 % ID and the biodistribution ovaries (120 min) was 0.00 % ID. For the same compound, the biodistribution pancreas (120 min) was 0.00 % ID, the biodistribution salivary gl (120 min) was 0.00 % ID and the “biodistribution stomach GL” value (120 min) was 0.03 % ID. The “biodistribution stomach SQ” value (120 min) was 0.03 % ID and the biodistribution tail (120 min) was 0.12 % ID.
